In the supplement of paper PMC4723716 one finds viability index data, which are given here for 70 molecules.

Structures are written as SMILES. ± gives the uncertainty stated by the source. Over roughly 9,900 compounds, “viability index relative to DMSO control” has its median near 1; the lowest 2% begin near 0.85. The list shows a part of the results.

This assay deals with Plasmodium falciparum NF54 stage V gametocytes. The assay is described as follows: viability index relative to DMSO control (fraction); higher = less gametocyte killing. The conditions noted are these: 2.5 µM, library set: Broad Institute DOS, incubation time: 72 h. In outline:
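Gametocytes (P. falciparum NF54, stage V) were treated with compound at 2.5 µM for 72 hr at 37°C in low oxygen, in serum-free medium at 0.75% gametocytemia and 1.25% hematocrit. Counts of 20–70 µm2 red particles, taken from one field per well after MitoTracker Red CMXRos with saponin, were divided by the plate mean of solvent-only wells. This ratio is the viability index.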
Turning to `CCCC(=O)Nc1ccc2c(c1)OC[C@H](C)NC[C@@H](C)[C@@H](OC)CN(C)C2=O`, the viability index came out at 1.114 ± 0.0019.
`COc1ccc(NC(=O)N2CC[C@@]3(CC2)CN([C@H](CO)c2c3c3ccc(OC)cc3n2C)C(=O)C2CCC2)cc1`: the viability index is 0.785 ± 0.057.
Then `CO[C@H]1CN(C)C(=O)c2ccc(NS(C)(=O)=O)cc2OC[C@@H](C)N(C(=O)CN(C)C)C[C@H]1C`, with 1.02 ± 0.017; and `COc1ccc2c3c([nH]c2c1)[C@H](CO)N(Cc1ccccn1)C[C@]31CCN(CC1)C(C)=O`, with 1.04 ± 0.053; and `C[C@@H]1CCCCO[C@@H](CN(C)S(=O)(=O)c2cn(C)cn2)[C@H](C)CN([C@@H](C)CO)C(=O)c2cc(N(C)C)ccc2O1`, with 1.06 ± 0.012.
Then `COc1ccc2c3c([C@H](CO)NC[C@]33CCN(CC3)C(=O)c3ccc(F)cc3)n(C)c2c1`, with 0.918 ± 0.025.
In the case of `CS(=O)(=O)N1[C@H](CO)[C@H](c2ccc(C#Cc3cccc(F)c3)cc2)[C@@H]1C#N` it was 1.04 ± 0.061; in that of `CO[C@@H]1CN(C)C(=O)c2ccc(NC(=O)Nc3ccc(F)cc3)cc2OC[C@@H](C)N(C(=O)c2ccc(F)cc2)C[C@H]1C`, 1 ± 0.025.
`Cc1nn(C)cc1NC(=O)C[C@@H]1CC[C@H]2[C@H](COc3ccc(NC(=O)C4CCOCC4)cc3C(=O)N2C)O1`: the viability index came to 1.087 ± 0.0056.
Then `CC(C)C[C@H]1COCc2cn(nn2)CC[C@H](Cc2ccc(Cl)cc2)C(=O)N1`, with 0.978 ± 0.097; and `CC(C)c1cn(CC[C@@H]2CC[C@@H](NS(=O)(=O)c3ccc(F)cc3)[C@H](CO)O2)nn1`, with 1.12 ± 0.091.
As to `CO[C@@H]1CN(C)C(=O)c2cc(NC(=O)Nc3c(C)noc3C)ccc2OC[C@@H](C)NC[C@H]1C`, the viability index was determined as 1.03 ± 0.047.
Molecule `COc1ccccc1CNC(=O)C[C@H]1CC[C@H]2[C@@H](COc3ccc(NC(C)=O)cc3C(=O)N2C)O1` returned a viability index of 0.975 ± 0.098.
As to `COc1ccc(S(=O)(=O)Nc2ccc3c(c2)C(=O)N([C@@H](C)CO)C[C@@H](C)[C@@H](CN(C)S(=O)(=O)c2ccc(Cl)cc2)OCCCC[C@H](C)O3)cc1`, the viability index stood at 0.911 ± 0.031.
Then `CCCC#Cc1ccc2c(c1)[C@@H]1[C@@H](CCN1C(=O)CC1CC1)[C@@H](CO)N2C`, with 1.09 ± 0.02; and `O=C(C[C@H]1CC[C@@H](NC(=O)c2ccc(F)cc2)[C@H](CO)O1)NCCc1ccccc1`, with 1.12 ± 0.089.
Turning to `CO[C@H]1CN(C)C(=O)c2cc(NC(=O)NC3CCCCC3)ccc2OC[C@@H](C)N(CC2CCOCC2)C[C@@H]1C`, the viability index is 1.09 ± 0.029.
In the case of `COCC(=O)Nc1ccc2c(c1)[C@H]1C[C@H](CC(=O)N[C@H](C)c3ccccc3)O[C@@H](CO)[C@H]1O2` it was 1.016 ± 0.0073; in that of `CN(C)C(=O)c1cccc(-c2ccc([C@H]3[C@@H]4CN(Cc5ccccc5F)C[C@H]3N4)cc2)c1`, 1.05 ± 0.084; in that of `CC(C)C#Cc1ccc([C@H]2[C@H](CO)N3C(=O)CN(C(=O)NC4CCCC4)C[C@@H]23)cc1`, 0.977 ± 0.053.
Then `O=C(Cc1cccnc1)N1CC(=O)N2[C@H](CO)[C@@H](c3ccc(C4=CCCCC4)cc3)[C@H]2C1`, with 0.9507 ± 0.0051; and `CO[C@H](CN(C)Cc1cc(F)ccc1F)[C@@H](C)CN(C(=O)Nc1ccc(C(F)(F)F)cc1)[C@H](C)CO`, with 1.1 ± 0.057; and `COc1cccc(NC(=O)Nc2ccc3c(c2)C(=O)N(C)C[C@@H](OC)[C@H](C)CN[C@H](C)CO3)c1`, with 0.946 ± 0.14.
Then `O=C(O)[C@@H]1[C@@H](CO)[C@@H]2Cn3c(cccc3=O)[C@@H]2N1C(=O)NC1CCCC1`, with 1.09 ± 0.016.
`N#C[C@@H]1[C@@H](c2ccc(C#Cc3cccnc3)cc2)[C@@H](CO)N1C(=O)NC1CCCCC1` returned a viability index of 1.08 ± 0.11.
Then `COc1ccccc1NC(=O)N1C[C@H]2[C@@H](c3ccccc31)[C@H](CO)N2C(=O)C1CCCC1`, with 1.02 ± 0.046; and `COc1ccc2c3c([C@@H](CO)N(Cc4ccncc4)C[C@]33CN(C3)C(=O)C3CCCCC3)n(C)c2c1`, with 1.062 ± 0.004.
In the case of `CS(=O)(=O)Nc1ccc2c(c1)[C@H]1C[C@@H](CC(=O)NCCc3ccccc3)O[C@H](CO)[C@H]1O2` it was 1.04 ± 0.022; in that of `O=C(C[C@H]1CC[C@@H]2[C@H](COC[C@H](O)CN2C(=O)c2cccnc2)O1)NCC1CC1`, 1 ± 0.052.
In the case of `COc1ccc(-c2cn(CC[C@H]3CC[C@H](NC(=O)c4cnccn4)[C@@H](CO)O3)nn2)cc1` it was 1.18 ± 0.081; in that of `CO[C@@H]1CN(C)C(=O)c2cc(NC(=O)C3CCOCC3)ccc2OC[C@@H](C)N(C(=O)Nc2ccc(C(F)(F)F)cc2)C[C@H]1C`, 0.9496 ± 0.0042.
`CCCN1C[C@H](C)[C@H](OC)CN(C)C(=O)c2cc(NC(=O)Nc3cccc(F)c3)ccc2OC[C@H]1C`: the viability index is 1.13 ± 0.05.
Then `CN(C)C(=O)C[C@@H]1C=C[C@H](NC(=O)c2ccc(F)cc2)[C@H](CO)O1`, with 1.11 ± 0.23.
In the case of `O=C(c1ccccn1)N1CC(=O)N2[C@H](CO)[C@H](c3ccc(C4=CCCC4)cc3)[C@@H]2C1` it was 0.998 ± 0.087.
In turn, `C[C@@H]1CN([C@@H](C)CO)C(=O)c2cc(NC(=O)Nc3cccc4ccccc34)ccc2O[C@@H]1CN(C)S(=O)(=O)c1cccs1` had a viability index of 1.04 ± 0.043.
Then `CC(C)(O)C#Cc1ccc([C@@H]2[C@@H](CO)N3CCCCN(S(C)(=O)=O)C[C@H]23)cc1`, with 1.02 ± 0.037; and `O=C(C[C@H]1C=C[C@@H](NC(=O)c2cnccn2)[C@@H](CO)O1)NCc1ccccc1F`, with 1.04 ± 0.068; and `CCNC(=O)[C@H]1[C@H](CO)[C@H]2Cn3c(cccc3=O)[C@@H]1N2C(=O)Nc1cc(F)ccc1F`, with 1.03 ± 0.078.
Then `CO[C@H]1CN(C)C(=O)c2cccc(C#N)c2OCC[C@H]2CC[C@@H](OC)[C@H](CN(C)C(=O)[C@H]1C)O2`, with 1.04 ± 0.029; and `Cc1noc(C)c1S(=O)(=O)N(C)C[C@H]1Oc2c(NC(=O)c3ccc(-c4nccs4)cc3)cccc2C(=O)N([C@@H](C)CO)C[C@H]1C`, with 1.02 ± 0.032.
The molecule `CC(C)NC(=O)Nc1cccc2c1O[C@H](CN(C)C(=O)Nc1ccccc1)[C@@H](C)CN([C@H](C)CO)C2=O` registered a viability index of 0.975 ± 0.13.
Regarding `c1cncc(CN2C[C@@H]3N[C@H](C2)[C@@H]3c2ccc(-c3cccnc3)cc2)c1`, the viability index came out at 1.084 ± 0.0083.
Consider `COc1cccc(C(=O)Nc2ccc3c(c2)OC[C@@H](C)N(CCc2ccccc2)C[C@H](C)[C@H](OC)CN(C)C3=O)c1`, for which the viability index stood at 1.07 ± 0.062.
In turn, `COc1ccc2c3c([C@H](CO)N(Cc4ccccc4OC)C[C@]33CCN(CC4CC4)CC3)n(C)c2c1` returned a viability index of 0.9438 ± 0.0079.
In the case of `CCc1nc(N2[C@H](C#N)[C@@H](c3ccccc3-c3ccccc3C)[C@H]2CO)sc1C` it was 1.02 ± 0.18; in that of `C[C@H](NC(=O)C[C@H]1C=C[C@@H](NC(=O)c2cccnc2)[C@@H](CO)O1)c1ccccc1`, 1.116 ± 0.004.
For `Cc1noc(C)c1NC(=O)Nc1ccc2c(c1)C(=O)N([C@H](C)CO)C[C@H](C)[C@H](CN(C)Cc1ccc3c(c1)OCO3)OCCCC[C@@H](C)O2`, the viability index was found to be 1.11 ± 0.04.
Then `CO[C@H](CN(C)C(=O)Nc1ccc(Cl)cc1)[C@H](C)CN(Cc1ccccc1Cl)[C@@H](C)CO`, with 1.07 ± 0.037; and `COC(=O)C[C@H]1C[C@@H]2c3cc(NC(=O)c4ccc5c(c4)OCO5)ccc3O[C@@H]2[C@@H](CO)O1`, with 1.035 ± 0.007.
For `N#C[C@@H]1[C@H](c2ccc(-c3cccnc3)cc2)[C@H](CO)N1C(=O)Nc1ccc(F)cc1`, the viability index was determined as 0.994 ± 0.033.
`CCCNC(=O)N1[C@H](CO)[C@H](c2ccccc2-c2ccccc2F)[C@@H]1C#N` yielded a viability index of 1.15 ± 0.028.
`C[C@H](CO)N1C[C@H](C)[C@@H](CN(C)S(=O)(=O)c2cn(C)cn2)OCCCC[C@H](C)Oc2ccc(NC(=O)Nc3cccc4ccccc34)cc2C1=O` registered a viability index of 1.01 ± 0.023.
In the case of `C[C@@H]1CCCCO[C@@H](CN(C)Cc2ccc3c(c2)OCO3)[C@H](C)CN([C@H](C)CO)C(=O)c2cc(NS(=O)(=O)c3cn(C)cn3)ccc2O1` it was 1.196 ± 0.0066; in that of `CCCNC(=O)[C@@H]1[C@@H](CO)[C@@H]2Cn3c(cccc3=O)[C@H]1N2CCC(F)(F)F`, 1.05 ± 0.024.
Then `COc1ccccc1C#Cc1ccc2c(c1)[C@@H]1[C@@H](CCN1C(=O)c1ccncc1)[C@H](CO)N2`, with 1.1 ± 0.039; and `Cc1ccc(S(=O)(=O)N2C[C@H]3[C@@H](c4ccccc42)[C@H](CO)N3Cc2cccnc2)cc1`, with 1.06 ± 0.063; and `C[C@H](CO)N1C[C@H](C)[C@@H](CN(C)C(=O)NC2CCCCC2)OCc2ccccc2-c2ccccc2C1=O`, with 0.908 ± 0.14.
On to `C[C@H](NC(=O)C[C@@H]1CC[C@H]2[C@@H](COc3ccc(NS(=O)(=O)c4ccc(Cl)cc4)cc3C(=O)N2C)O1)c1ccccc1`, for which the viability index came out at 0.9494 ± 0.0021.
`O=C1C[C@@H](c2ccccc2)C(=O)N[C@H](c2ccccc2)C/C=C\C[C@H](c2ccccc2)N1`: the viability index came to 1.03 ± 0.024.
Then `CNC[C@H]1OCc2cnnn2CCCC(=O)N([C@H](C)CO)C[C@@H]1C`, with 1.04 ± 0.05.
In turn, `C[C@@H]1CC(=O)N[C@@H](c2ccccc2)C/C=C\C[C@H](c2ccccc2)NC1=O` yielded a viability index of 1.01 ± 0.083.
Then `C[C@@H]1CN([C@@H](C)CO)C(=O)c2ccccc2-c2ccccc2CO[C@H]1CN(C)S(=O)(=O)c1cccs1`, with 0.999 ± 0.086.
Then `CO[C@@H]1CN(C)C(=O)c2cc(NC(=O)Cc3ccccc3)ccc2OC[C@@H](C)N(C(=O)c2ccccc2F)C[C@H]1C`, with 1.14 ± 0.06; and `O=C(c1cnccn1)N1CC(=O)N2[C@H](CO)[C@@H](c3ccc(/C=C/c4ccccc4)cc3)[C@@H]2C1`, with 0.999 ± 0.12.
In the case of `CNC[C@@H]1OCc2ccccc2-c2ccccc2C(=O)N([C@H](C)CO)C[C@@H]1C` it was 0.997 ± 0.019.
The molecule `CC(C)NC(=O)N(C)C[C@@H]1Oc2ccc(NC(=O)c3ccncc3)cc2C(=O)N([C@@H](C)CO)C[C@H]1C` registered a viability index of 0.966 ± 0.17.
In the case of `COc1cccc(NC(=O)N[C@@H]2CC[C@@H](CC(=O)N3CCN(C)CC3)O[C@H]2CO)c1` it was 1.09 ± 0.029.
`O=C(CCN1CCCCC1)N[C@@H]1CC[C@H](CC(=O)N2CCC(Cc3ccccc3)CC2)O[C@@H]1CO` yielded a viability index of 0.968 ± 0.084.
Then `C/C=C/c1ccc2n(c1=O)C[C@@H]1N[C@H]2[C@H](C(=O)NC2CCCC2)[C@H]1CO.C/C=C\c1ccc2n(c1=O)C[C@@H]1N[C@H]2[C@H](C(=O)NC2CCCC2)[C@H]1CO`, with 1.04 ± 0.018.
Then `COc1cccc(S(=O)(=O)Nc2ccc3c(c2)[C@@H]2C[C@H](CC(=O)NC4CCCCC4)O[C@H](CO)[C@@H]2O3)c1`, with 1.07 ± 0.045.
